Data: article PMC5466610
Like-named read-outs stand apart in the source and are kept apart here. Results are given in words; binding and its absence hold for the method and conditions named. For part of these data: In cells and extracts the contact can be indirect. Some entries that bind do so weakly or less than the wild type. For part of these data: Sequences can lack the tags named with a protein. Each block holds one molecule with its values, some of them ahead of it.

Amino acid sequences for entries named in this document (tags omitted).
UniProt Q9FIP9: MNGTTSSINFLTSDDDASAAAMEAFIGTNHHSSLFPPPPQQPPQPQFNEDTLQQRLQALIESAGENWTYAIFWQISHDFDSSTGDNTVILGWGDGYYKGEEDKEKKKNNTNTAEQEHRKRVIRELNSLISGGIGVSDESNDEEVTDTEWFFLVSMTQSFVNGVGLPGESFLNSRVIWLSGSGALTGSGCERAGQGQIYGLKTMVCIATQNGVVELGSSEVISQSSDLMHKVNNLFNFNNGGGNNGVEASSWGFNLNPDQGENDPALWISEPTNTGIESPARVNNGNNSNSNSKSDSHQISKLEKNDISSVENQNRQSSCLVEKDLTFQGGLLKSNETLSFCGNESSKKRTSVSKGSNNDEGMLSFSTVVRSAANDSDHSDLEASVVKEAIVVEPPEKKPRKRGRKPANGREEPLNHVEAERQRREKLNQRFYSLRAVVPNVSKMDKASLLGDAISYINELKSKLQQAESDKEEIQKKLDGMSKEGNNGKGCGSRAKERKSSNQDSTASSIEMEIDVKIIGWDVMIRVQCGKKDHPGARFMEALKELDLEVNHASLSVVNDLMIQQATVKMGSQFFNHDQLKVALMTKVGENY
UniProt O49687: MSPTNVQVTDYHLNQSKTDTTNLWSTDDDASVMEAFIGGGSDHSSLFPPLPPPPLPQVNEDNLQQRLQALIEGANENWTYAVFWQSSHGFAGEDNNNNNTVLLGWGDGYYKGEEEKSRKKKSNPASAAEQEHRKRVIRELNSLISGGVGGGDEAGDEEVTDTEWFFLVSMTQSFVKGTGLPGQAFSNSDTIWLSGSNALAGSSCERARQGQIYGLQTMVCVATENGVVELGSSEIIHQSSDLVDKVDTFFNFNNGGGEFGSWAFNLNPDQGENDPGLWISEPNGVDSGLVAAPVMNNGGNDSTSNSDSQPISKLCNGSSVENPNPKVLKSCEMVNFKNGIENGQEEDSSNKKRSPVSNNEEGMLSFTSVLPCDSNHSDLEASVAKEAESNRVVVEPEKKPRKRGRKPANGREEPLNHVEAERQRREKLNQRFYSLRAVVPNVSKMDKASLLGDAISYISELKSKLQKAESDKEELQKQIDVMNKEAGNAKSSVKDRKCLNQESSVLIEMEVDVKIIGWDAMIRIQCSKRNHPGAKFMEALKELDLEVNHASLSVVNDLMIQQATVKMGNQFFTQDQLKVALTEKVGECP

Legend:
[1] = molecular target: T1, AKIN10^397–512 (Arabidopsis thaliana) (UniProt Q38997); assay: two-hybrid; Matchmaker GAL4 system, yeast strain AH109; AKIN10 fragments as GAL4 BD fusions (pGBKT7), EIN3 fragment as GAL4 AD fusion (pGADT7); growth on -Leu -Trp -His medium with 0.5 mM or 1.5 mM 3-AT, 30 °C, 3 to 4 days
T1 sequence: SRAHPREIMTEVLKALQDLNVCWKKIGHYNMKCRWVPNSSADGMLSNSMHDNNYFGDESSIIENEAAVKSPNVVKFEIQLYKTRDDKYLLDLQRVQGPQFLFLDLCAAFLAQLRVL

[2] = molecular target: T1, AKIN10^397–512 (Arabidopsis thaliana); assay: as above; remark: listed apart in the source
[3] = molecular target: T2, GFP-tagged AKIN10 (Arabidopsis thaliana) (UniProt Q38997); assay: co-IP; Arabidopsis protoplasts transfected with GFP-tagged AKIN10 and HA-tagged EIN3 200-500; IP with anti-GFP antibody and Protein A beads at 4 °C in 50 mM Tris-HCl pH 7.5, 150 mM NaCl, 5 mM EDTA, 1 mM DTT, 1% Triton-X100; blot with anti-HA
T2 sequence: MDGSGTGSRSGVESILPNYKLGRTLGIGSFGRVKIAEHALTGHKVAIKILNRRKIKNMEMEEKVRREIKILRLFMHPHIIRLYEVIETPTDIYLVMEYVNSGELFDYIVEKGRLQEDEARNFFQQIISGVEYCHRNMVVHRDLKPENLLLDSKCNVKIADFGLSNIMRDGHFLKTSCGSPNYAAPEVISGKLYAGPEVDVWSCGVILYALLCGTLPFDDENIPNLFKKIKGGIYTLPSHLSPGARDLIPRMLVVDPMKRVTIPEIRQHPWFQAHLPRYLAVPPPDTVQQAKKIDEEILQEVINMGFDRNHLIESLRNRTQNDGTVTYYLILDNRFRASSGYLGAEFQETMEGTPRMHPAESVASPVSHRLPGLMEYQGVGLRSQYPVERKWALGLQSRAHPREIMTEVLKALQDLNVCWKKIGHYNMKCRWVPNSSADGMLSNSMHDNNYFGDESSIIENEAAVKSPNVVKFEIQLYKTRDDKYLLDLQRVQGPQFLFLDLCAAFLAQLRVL

binding [1]: no binding
Molecule: MYC3 (from UniProt Q9FIP9 1-592)

binding [2]: no binding
B1: MYB2 (protein, UniProt Q39028 1-273)
chain: MEDYERINSNSPTHEEDSDVRKGPWTEEEDAILVNFVSIHGDARWNHIARSSGLKRTGKSCRLRWLNYLRPDVRRGNITLEEQFMILKLHSLWGNRWSKIAQYLPGRTDNEIKNYWRTRVQKQAKHLRCDVNSNLFKETMRNVWMPRLVERINAQSLPTTCEQVESMITDPSQPVNEPSPVEPGFVQFSQNHHQQFVPATELSATSSNSPAETFSDVRGGVVNGSGYDPSGQTGFGEFNDWGCVGGDNMWTDEESFWFLQDQFCPDTTSYSYN

binding [2]: no binding
B4: EIN3^315–628 (domain or fragment, UniProt O24606 315-628)
chain: GSCSLLMNDCSQYDVEGFEKESHYEVEELKPEKVMNSSNFGMVAKMHDFPVKEEVPAGNSEFMRKRKPNRDLNTIMDRTVFTCENLGCAHSEISRGFLDRNSRDNHQLACPHRDSRLPYGAAPSRFHVNEVKPVVGFPQPRPVNSVAQPIDLTGIVPEDGQKMISELMSMYDRNVQSNQTSMVMENQSVSLLQPTVHNHQEHLQFPGNMVEGSFFEDLNIPNRANNNNSSNNQTFFQGNNNNNNVFKFDTADHNNFEAAHNNNNNSSGNRFQLVFDSTPFDMASFDYRDDMSMPGVVGTMDGMQQKQQDVSIWF

Continued, molecule first:

Molecule: MYC4 (from UniProt O49687 1-589)
binding [1]: no binding

B2: EIN3^200–500 (domain or fragment, UniProt O24606 200-500)
chain: PQRRFPLEKGVPPPWWPNGKEDWWPQLGLPKDQGPAPYKKPHDLKKAWKVGVLTAVIKHMFPDIAKIRKLVRQSKCLQDKMTAKESATWLAIINQEESLARELYPESCPPLSLSGGSCSLLMNDCSQYDVEGFEKESHYEVEELKPEKVMNSSNFGMVAKMHDFPVKEEVPAGNSEFMRKRKPNRDLNTIMDRTVFTCENLGCAHSEISRGFLDRNSRDNHQLACPHRDSRLPYGAAPSRFHVNEVKPVVGFPQPRPVNSVAQPIDLTGIVPEDGQKMISELMSMYDRNVQSNQTSMVMEN
binding [2]: binds

B3: HA-tagged EIN3^200–500 (domain or fragment, UniProt O24606 200-500)
chain: B2 chain
binding [3]: binds
